This is an account of results in publication PMC12136788.

Sequences and labels used below:
T1: UNK ZnF1-3 (human, UniProt Q9C0B0 31-174)
T1 sequence: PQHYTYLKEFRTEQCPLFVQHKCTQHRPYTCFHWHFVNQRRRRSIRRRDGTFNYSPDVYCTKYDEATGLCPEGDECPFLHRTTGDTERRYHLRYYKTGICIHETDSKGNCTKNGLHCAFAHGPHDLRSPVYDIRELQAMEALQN

B1: 69235922_69236042_4149_3pUTR_ENSG00000135679_ENST00000462284|human|control|control (ssRNA)
RNA: GGGAGUUCUACAGUCCGACGAUCUCCGUAGUCCUUUUUCUUGAAUUUGUUCAUUAUAAAUAUAGCUUGGCAUUUGUUUGAUCUUUUCAACUGUCUUCACUGCAUCAGUAGUUUUAUUCCAUAGUUCUUGCAGAUAUUUGACAGCAACAGAGGAUUGAGCAUCA
B2: chr11:20585787:20585788:-_ENSMUSG00000049659_ENSMUST00000146722|mus_mus|FALSE|FALSE (ssRNA)
RNA: GGGAGUUCUACAGUCCGACGAUCUCUUUUUUUAUUUCAAAAGUUUUUAAGAAGGACACCACCAGUGUAUUUCACAAAGACAUAAAUGUAUACACCCCAGCAACACAAAAGAAUAAAUCUUCAAAAAUGUUCAUCCCCAAUUAUCAACAGAGGAUUGAGCAUCA
B3: chr2:125499325:125499326:+_ENSMUSG00000091337_ENSMUST00000164756|mus_hu|FALSE|FALSE (ssRNA)
RNA: GGGAGUUCUACAGUCCGACGAUCGAGUUCUUCGGUCAGACGAUUGACAACCAUCAGUGAAAAAAGCUCUUCGAUAAAAGCUAACUGAUCAAACGGGGUCUUCUCAUAAUGCAUCUGAAACCCGCCAUCCAGGGCUGGUUCUCUCAACAGAGGAUUGAGCAUCA
B4: chrX:71549762:71549763:+_ENSMUSG00000019087_ENSMUST00000019231|mus_mus|mus_mus_mus_hu_False|8_78 (ssRNA)
RNA: GGGAGUUCUACAGUCCGACGAUCAAACCCGUGUACUUCUUAUUGUUAGCACAACAUUCCCCCCCAACGAUAACGACAGCCAAGCAGGACAGACAGUUAAGUAGUACUUCCACACUCCCAAACUCAGAGGAACCUCAAACCUUACAACAGAGGAUUGAGCAUCA
B5: chr7:26237324:26237325:-_ENSG00000122566_ENST00000356674|hu_hu|FALSE|FALSE (ssRNA)
RNA: GGGAGUUCUACAGUCCGACGAUCUUCGUAGUAGUUCCUCAAACUUUCUUCUGUGGUUUCAAAGCUUAAGCCACCAAUAAAGAGCUUACGGAACUGUUCCUUUUCUCUCUCCAUCGCGGACUCAGUCGCUUCAGCCCGAUUUCCCAACAGAGGAUUGAGCAUCA
B6: chr8:104444897:104444898:+_ENSG00000164934_ENST00000297579|hu_hu|FALSE|FALSE (ssRNA)
RNA: GGGAGUUCUACAGUCCGACGAUCUGCUGUAAAAAUGAAAGCUUCCAUAGGGUUCCAACAGAUUGUAUUUGUUCUCAUAUCUAAGAUAACCUUUUUCAAAGGAGUAGCUUGCCUCAUAUCGUACAGUACUAUAUUCCUGUCAGACAACAGAGGAUUGAGCAUCA
B7: chr10:89574256:89574257:-_ENSG00000138138_ENST00000328142|hu_hu|FALSE|FALSE (ssRNA)
RNA: GGGAGUUCUACAGUCCGACGAUCCUGAGCUUCUACUUUUUGCUUUCUGGUUGGAUCAAUUGCAUCUACCAUCCAUUUGAUAGUAAAGUAUGUCACUGCACCAAAUAUUGUCAAACGGAAAAUUAAACCAACAACUUCAUUCCGCAACAGAGGAUUGAGCAUCA
B8: 71194378_71194498_5973_3pUTR_ENSG00000006432_ENST00000554752|human|control|control (ssRNA)
RNA: GGGAGUUCUACAGUCCGACGAUCGGGGCCCAUCAGAGACCAGGUGUGUAGGAGCUGAGAGAUGGUAACUGUUCCUUCUUCAUGGAUGCUCACAGUAGCACCUUUGGAUAGCCCUGCUUUUGCUUCUUUCAGGUACAAUUAUUUCAACAGAGGAUUGAGCAUCA
B9: chr1:60041781:60041782:+_ENSMUSG00000041040_ENSMUST00000036540|mus_hu|mus_mus_mus_hu_False|18_98 (ssRNA)
RNA: GGGAGUUCUACAGUCCGACGAUCAAGUUUACAAUAGCUCAACUUUAGCAGUAGUGGCAAAUUUUCUUUUAUUUUCCUUCACAAAAGAAAAUCUUUAUAACCCAGUCCUAGUCUUGGCAGAGAAAGCAGCUAUAAAUUCUGACUCAACAGAGGAUUGAGCAUCA
B10: chr2:216981417:216981418:+_ENSG00000079246_ENST00000392132|hu_hu|hu_hu_hu_mus_True|38_98 (ssRNA)
RNA: GGGAGUUCUACAGUCCGACGAUCCUGAUACUGGUCCCCACCAGAAAGGGCAUUAUCAGUGCCAUCUGUGCCAUAGAGGACUAACGCAAUCUCAUCUUUGUUCUCAGAAAAUACCUGUCGUUGGACAAACAUAGUCAUCACUUUCAACAGAGGAUUGAGCAUCA
B11: chr6:86325054:86325055:-_ENSG00000135316_ENST00000355238|hu_hu|FALSE|FALSE (ssRNA)
RNA: GGGAGUUCUACAGUCCGACGAUCUCCACGCCCUCGACCUCUUGUUGGAGGGGGCAUAUGAGGUGGACCAUAAUAGUAGUAAUCGUCAUACAUUUGAUUUUUUGCUGCUUGCCUCUGAGCUUUUCUUUCUUUCCUUUUCUGAUCCAACAGAGGAUUGAGCAUCA
B12: chr5:145543945:145543946:-_ENSG00000133706_ENST00000545646|hu_hu|hu_hu_hu_mus_True|18_38 (ssRNA)
RNA: GGGAGUUCUACAGUCCGACGAUCCUGAACGGCCAGUGGUGGGAAAUAAUCAAGCCAGUGCUCUGCUUCAGAAAACUUCACUAUGUCGUCAUCAGAGAGGCCAAGGGAUUUCAUAAUGCCCCACUGGUACUUAGAAGAUCCUGCCAACAGAGGAUUGAGCAUCA
B13: chr3:10015032:10015033:+_ENSMUSG00000027533_ENSMUST00000029046|mus_mus|mus_mus_mus_hu_True|1_88 (ssRNA)
RNA: GGGAGUUCUACAGUCCGACGAUCGUUUUUACCAUCACAAGUGAUGAUACAGUCUGGCUUGGCCAUUGCGCCCAUUUUUCGCAAAGCUAUUCCCACUCCUAGCUCCUUCAUGUAUUCAUCAAAGCCUUUGCUGUCCAUCAGGCGCAACAGAGGAUUGAGCAUCA
B14: 63416140_63416260_867_3pUTR_ENSMUSG00000004319_ENSMUST00000093490|mouse|control|control (ssRNA)
RNA: GGGAGUUCUACAGUCCGACGAUCGACAUUUAUCCCUCUCUUCAAACGUUGUCUCAUUAGAGCCCCAACAACACUGUUCAUGGUUGUACCACAAUGCACUGAGGCAGAUGCCCUCCUUCAGGUCAGUCAUCCAGUCAGCAGCAACAACAGAGGAUUGAGCAUCA
B15: chr9:110451855:110451856:+_ENSMUSG00000044791_ENSMUST00000153838|mus_mus|FALSE|FALSE (ssRNA)
RNA: GGGAGUUCUACAGUCCGACGAUCAACUGGCAAAGACAUGAGUUUAUCAUGGUGUGGUGACAACAAAGGUUCCAUUUCCCUAAAUGGACUUUUUGACGUAUUAUGCUGCCUACAAGUAUCAUCUGAGUCCCUUUCUCUGCAUCUCAACAGAGGAUUGAGCAUCA
B16: chr7:54825262:54825263:-_ENSG00000132432_ENST00000352861|hu_hu|hu_hu_hu_mus_False|1_108 (ssRNA)
RNA: GGGAGUUCUACAGUCCGACGAUCCUGACUUGGCUCAUCCACAAACUGCAUUACCUGAUCCAUGUUUGUUGGAUGGCGGAUUGAGAGCGUAGAGACACGUAGCUCAGGAGAGAACCGAGCCCAACGGAACCGGAAGCGGAAUCCCAACAGAGGAUUGAGCAUCA
B17: chr11:46405157:46405158:+_ENSG00000110492_ENST00000395566|hu_hu|hu_hu_hu_mus_False|18_88 (ssRNA)
RNA: GGGAGUUCUACAGUCCGACGAUCCCCUCCCCACUUUGGGCACUUGGUGAGAGGGACAGAGGACAGGCGUGAUUGACAGAGCUGACAGGAAGACAAAAGGCACUGGUGGGUUAUAUCUCGGGCCUGGGGGAGAGGAGGGCUCCGCAACAGAGGAUUGAGCAUCA
B18: chr3:179287964:179287965:+_ENSG00000136518_ENST00000429709|hu_hu|hu_hu_hu_mus_True|58_88 (ssRNA)
RNA: GGGAGUUCUACAGUCCGACGAUCCUUGAGUGGUGAGAUGGCCUCCAUAUUCUCCCUGGGCACGCGGAGGGCAUUGGUAUCUAUGUAGUAGGUGGGCCCGCCCUGCUUGCCUUUGUCACCAUCAAUCUCCAUCAUUGUACUUCCCAACAGAGGAUUGAGCAUCA
B19: chr1:244855233:244855234:+_ENSG00000121644_ENST00000302550|hu_mus|hu_hu_hu_mus_True|58_98 (ssRNA)
RNA: GGGAGUUCUACAGUCCGACGAUCCAUCAGAUGGUAGGCAUUGCCUUUAUACUCUUUCCCCAGUUCUUCUACAAUUUUUUCUAUAUCAUCUUCUAGAAAGUCCGUACUUCCUAGAACAACAGCUUCUUUAAAUUUAAAUGUUUCCAACAGAGGAUUGAGCAUCA
B20: chr19:10059387:10059388:+_ENSMUSG00000024661_ENSMUST00000025563|mus_mus|FALSE|FALSE (ssRNA)
RNA: GGGAGUUCUACAGUCCGACGAUCGGGGAAGUCAGCUUAGCUCUCAUCACCGUGUCCCAGGGUGUGCUUGUCAAAGAGAUAUUCUGCCAUGCCAGCUUCAGGGGCACCCAUCUUGCGUAAGUUGGUCACGUGGUCACCCAGUUCCAACAGAGGAUUGAGCAUCA
B21: chr19:16212804:16212805:+_ENSG00000167460_ENST00000300933|hu_mus|hu_hu_hu_mus_False|28_108 (ssRNA)
RNA: GGGAGUUCUACAGUCCGACGAUCAACAAAUAUGCAAUGAAGGAAAGAUGUAACAUGGAACAGCAUUAAAGCUCAGUCAGAAGGCACAUGGGCAACAAUGAUCACCCCCCAAGCAUUGCUUGGAAUGCUUAAAGACAAUCUGUUCAACAGAGGAUUGAGCAUCA
B22: chr18:33606911:33606912:-_ENSG00000141425_ENST00000399022|hu_hu|motif|central (ssRNA)
RNA: GGGAGUUCUACAGUCCGACGAUCUUCCAAUUUAUGCUCUUUCUCUGCAAGGGCUUCCUUUUGACAACGAAGAAAAUCUGCGGACAUUCGAGUGAGUUGCUUUCUAUCAUCUAUUUCUGCCGCCAAUCUGCCAUUGUAAUCUGCCAACAGAGGAUUGAGCAUCA

The other results are listed elsewhere or left out.

In this assay the target is T1, UNK ZnF1-3. Kind of assay: nsRBNS (natural sequence RNA bind-n-seq); RBNS binding buffer (assumed for nsRBNS): 25 mM Tris pH 7.5, 150 mM KCl, 3 mM MgCl2, 0.01% Triton X-100, 500 ug/ml BSA, 20 U/ml SUPERase-In, 4 C; UNK is unkempt and MSI1 is Musashi-1; names of the RNAs are library labels; protein concentration not given here; high values mean tight binding.
With B1, the binding signal was 0.68 enrichment R.

As for B2, the binding signal is 1.86 enrichment R.

For B3, the binding signal turned out to be 0.792 enrichment R.

B4 displayed a binding signal of 1.59 enrichment R.

The molecule B5 yielded a binding signal of 0.432 enrichment R.

For B6, the binding signal amounted to 1.54 enrichment R.

Consider B7, for which the binding signal turned out to be 0.86 enrichment R.

As to B8, the binding signal amounted to 0.886 enrichment R.

With B9, the binding signal was found to be 0.837 enrichment R.

Turning to B10, the binding signal stood at 0.941 enrichment R.

For the molecule B11, the binding signal is 0.504 enrichment R.

As to B12, the binding signal stood at 1.16 enrichment R.

For the molecule B13, the binding signal is 0.729 enrichment R.

For the molecule B14, the binding signal was determined as 0.904 enrichment R.

On to B15, for which the binding signal came out at 1.28 enrichment R.

Molecule B16 yielded a binding signal of 0.81 enrichment R.

In turn, B17 gave a binding signal of 3.09 enrichment R.

B18 had a binding signal of 0.686 enrichment R.

For the molecule B19, the binding signal is 1.61 enrichment R.

As to B20, the binding signal is 0.895 enrichment R.

B21 came in with a binding signal of 1.19 enrichment R.

In the case of B22, the binding signal is 0.454 enrichment R.
